Source: a compilation of properties of binary mixtures (doi:10.1524/zpch.2013.0326)
Some of these densities may be calculated back from excess volumes.

Assay: xn = mol fraction of the nth substance listed
Conditions: 101 kPa

Cc1ccccc1 + CCCCCCCC[n+]1ccc2ccccc2c1.O=S(=O)([N-]S(=O)(=O)C(F)(F)F)C(F)(F)F
x1 = 1
Conditions | mass density [kg/m3]
298.15 K | 862.2
318.15 K | 843.5
328.15 K | 833.9
338.15 K | 824.4
348.15 K | 814.6

CCCCCCCC[n+]1ccc2ccccc2c1.O=S(=O)([N-]S(=O)(=O)C(F)(F)F)C(F)(F)F + c1ccsc1
mass density [kg/m3]
Conditions | 298.15 K | 308.15 K | 318.15 K | 328.15 K | 338.15 K | 348.15 K
x2 = 0 | 1331.5 | 1322.8 | – | 1306 | 1297.6 | 1289.2
x2 = 0.0964 | 1325.7 | – | – | 1300.1 | 1291.6 | 1283.2
x2 = 0.1907 | 1319.5 | 1310.8 | 1302.3 | 1293.7 | 1285.2 | 1276.7
x2 = 0.2739 | 1313.1 | 1304.5 | – | 1287.5 | 1278.9 | 1270.4
x2 = 0.3572 | 1306 | 1297.2 | 1288.5 | 1279.8 | – | 1262.5
x2 = 0.4456 | 1296.8 | 1287.9 | 1279.1 | 1270.3 | 1261.5 | –
x2 = 0.542 | – | – | 1265 | 1256 | 1247.1 | 1238.2
x2 = 0.6385 | 1264.9 | – | 1246.5 | 1237.4 | 1228.2 | 1219.1
x2 = 0.7244 | 1243.1 | 1233.7 | 1224.2 | 1214.8 | 1205.4 | 1196
x2 = 0.821 | – | – | 1187 | 1177.1 | 1167.2 | 1157.3
x2 = 0.8627 | 1185.3 | 1175.1 | 1165 | 1154.8 | 1144.5 | 1134.3
x2 = 0.9065 | 1154.9 | – | – | 1123.1 | 1112.4 | 1101.6
x2 = 0.935 | 1131.3 | 1120.4 | 1109.4 | 1098.4 | 1087.2 | 1075.7

c1ccsc1 + CCCCCCCC[n+]1ccc2ccccc2c1.O=S(=O)([N-]S(=O)(=O)C(F)(F)F)C(F)(F)F
x1 = 1
Conditions | mass density [kg/m3]
298.15 K | 1058.5
308.15 K | 1046.6
318.15 K | 1034.5
328.15 K | 1022.3
338.15 K | 1009.9

CCCCCCCC[n+]1ccc2ccccc2c1.O=S(=O)([N-]S(=O)(=O)C(F)(F)F)C(F)(F)F + c1ccncc1
mass density [kg/m3]
Conditions | 298.15 K | 308.15 K | 318.15 K | 328.15 K | 338.15 K | 348.15 K
x2 = 0 | 1331.5 | 1322.8 | 1314.3 | – | 1297.6 | 1289.2
x2 = 0.0945 | 1324.1 | – | – | 1298.6 | – | –
x2 = 0.1869 | 1315.9 | 1307.3 | – | 1290.4 | 1281.9 | 1273.5
x2 = 0.2762 | 1306.3 | 1297.8 | 1289.2 | 1280.7 | 1272.2 | 1263.7
x2 = 0.3675 | 1294.6 | 1286 | 1277.4 | 1268.8 | 1260.2 | 1251.7
x2 = 0.4584 | 1280.3 | 1271.6 | 1262.9 | 1254.3 | 1245.7 | 1237.1
x2 = 0.5383 | 1264.6 | 1255.8 | – | 1238.4 | – | 1221.1
x2 = 0.637 | 1239.5 | 1230.7 | – | 1213.2 | 1204.5 | 1195.7
x2 = 0.7274 | 1208.2 | 1199.3 | 1190.3 | – | 1172.5 | 1163.7
x2 = 0.8199 | 1162.8 | – | 1144.6 | 1135.5 | – | 1117.3
x2 = 0.9064 | 1098.4 | 1089 | 1079.6 | 1070.1 | 1060.7 | 1051.2

c1ccccc1 + CCCCCCCC[n+]1ccc2ccccc2c1.O=S(=O)([N-]S(=O)(=O)C(F)(F)F)C(F)(F)F
x1 = 1
Conditions | mass density [kg/m3]
298.15 K | 873.6
318.15 K | 852.1
338.15 K | 830.2
348.15 K | 819.1

CCCCCCCC[n+]1ccc2ccccc2c1.O=S(=O)([N-]S(=O)(=O)C(F)(F)F)C(F)(F)F + c1ccccc1
mass density [kg/m3]
Conditions | 298.15 K | 308.15 K | 318.15 K | 328.15 K | 338.15 K | 348.15 K
x2 = 0 | – | 1322.8 | – | 1306 | 1297.6 | 1289.2
x2 = 0.0912 | 1321.8 | 1313.1 | 1304.7 | 1296.2 | 1287.8 | 1279.4
x2 = 0.1505 | 1314.6 | 1305.9 | 1297.5 | – | 1280.6 | 1272.2
x2 = 0.295 | 1294.8 | 1286.1 | 1277.5 | 1268.9 | 1260.5 | 1252.3
x2 = 0.332 | 1289 | 1280.5 | – | – | 1254.8 | –
x2 = 0.4679 | – | – | 1243.8 | 1235.1 | 1226.5 | 1217.8
x2 = 0.5663 | 1234.9 | 1226 | – | 1208.4 | 1199.6 | 1190.8
x2 = 0.654 | 1202.9 | 1193.9 | 1185 | 1176.1 | 1167.2 | –
x2 = 0.673 | – | 1185.6 | 1176.6 | – | – | 1149.7
x2 = 0.7443 | – | 1148.6 | 1139.4 | 1130.2 | 1121.1 | 1111.9
x2 = 0.8143 | 1111 | 1101.6 | 1092.2 | 1082.8 | – | 1063.8
x2 = 0.8961 | 1034.4 | 1024.5 | 1014.7 | 1004.7 | 994.8 | –

CCCCCCCC[n+]1ccc2ccccc2c1.O=S(=O)([N-]S(=O)(=O)C(F)(F)F)C(F)(F)F + Cc1ccccc1
mass density [kg/m3]
Conditions | 298.15 K | 308.15 K | 318.15 K | 328.15 K | 338.15 K | 348.15 K
x2 = 0 | 1331.5 | 1322.8 | 1314.3 | 1306 | – | 1289.2
x2 = 0.0818 | – | – | 1304.1 | 1295.7 | 1287.3 | 1278.9
x2 = 0.1949 | 1304.5 | 1296 | – | 1279 | 1270.6 | 1262.2
x2 = 0.2746 | 1290.6 | – | 1273.6 | 1265.1 | 1256.6 | 1248.2
x2 = 0.3638 | 1273.2 | 1264.6 | 1256 | – | 1239 | 1230.5
x2 = 0.4295 | 1257.6 | – | 1240.3 | – | 1223.2 | 1214.7
x2 = 0.4775 | – | – | 1227.7 | 1219.1 | – | 1202.1
x2 = 0.4902 | – | 1233 | 1224.3 | 1215.7 | 1207.1 | 1198.6
x2 = 0.5467 | 1224.1 | 1215.4 | 1206.7 | – | 1189.4 | 1180.9
x2 = 0.6148 | 1199 | 1190.3 | – | 1172.8 | 1164.1 | 1155.5
x2 = 0.7004 | 1159 | 1150.1 | 1141.3 | – | 1123.7 | 1114.9
x2 = 0.7634 | 1122 | 1113.1 | 1104.2 | 1095.3 | 1086.3 | 1077.4
x2 = 0.8672 | 1038.4 | 1029.3 | – | 1011 | 1001.8 | 992.6

c1ccncc1 + CCCCCCCC[n+]1ccc2ccccc2c1.O=S(=O)([N-]S(=O)(=O)C(F)(F)F)C(F)(F)F
x1 = 1
Conditions | mass density [kg/m3]
298.15 K | 978
308.15 K | 967.8
318.15 K | 957.7
328.15 K | 947.5
348.15 K | 926.8
